# Measurements reported in US20220117938A1, “COMBINATON THERAPY WITH A DON PRODRUG AND AN IMMUNE CHECKPOINT INHIBITOR” (DRACEN PHARMACEUTICALS, INC., priority 2019, published 2022).
# Further values from the same series stand in other lists.
# System: MC-38 tumors
# Assay: Anti-tumor efficacy of Compound 1 in the subcutaneous MC-38 model: schedule comparison (Example 3)
# Format: in vivo, Mus musculus
# Description: Female C57BL/6 mice were inoculated subcutaneously at right flank with MC-38 cells for tumor development. Six days after tumor inoculation, 64 mice with tumor size ranging from 50-100 mm^3 (average tumor size 71 mm^3) were selected and assigned into 8 groups using stratified randomization with 8 mice per group based upon their tumor volumes. The treatments were started from the day of randomization (defined as D0), Group 1 was treated with Vehicle (Tween 80:Ethanol:Saline—5:5:90 v/v/v), S.C. QD*20 days, Group 2 was treated with Compound 1 at 1 mpk S.C. QD*28 days, Group 3 was treated with Compound 1 at 0.5 mpk S.C. QD*28 days, Group 4 was treated with Compound 1 at 1.4 mpk S.C. 5-days ON 2-days OFF×4 cycles, Group 5 was treated with Compound 1 at 0.7 mpk S.C. 5-days ON 2-days OFF×4 cycles, Group 6 was treated with Compound 1 at 3 mpk qd×5, followed by 1 mpk qd×23, S.C. QD, Group 7 was treated with Compound 1 at 1.5 mpk qd×5, followed by 0.5 mpk qd×23, S.C. QD and Group 8 was treated with Compound 1 at 1.4 mpk 10-days ON 4-days OFF×2 cycles, S.C.
# Species: Mus musculus; Strain: C57BL/6; Age: 6-8 weeks; Sex: female; Body weight (at treatment start): 16-20 g.
# The MC-38 tumor cells were maintained in vitro as a monolayer culture in DMEM medium supplemented with 10% heat inactivated fetal bovine serum and 100 μg/mL penicillin streptomycin at 37° C. in an atmosphere of 5% CO2 in air. The tumor cells were routinely subcultured twice weekly by trypsin-EDTA treatment. The cells growing to a confluency around 70%-80% were harvested and counted for tumor inoculation. The cultured MC-38 were harvested, re-suspended in base medium at a density of 1×10^7 cells/mL with viability>90%. Each mouse was inoculated subcutaneously at the right flank with 1×10^6 cells in 0.1 ml base medium for tumor development.
# The treatments were started on day 6 after tumor inoculation when the tumor size reached 50-100 mm^3 (average tumor size 71 mm^3). Each group consisted of 8 tumor-bearing mice. The testing article was administrated to the mice at a dosing volume of 10 mL/Kg according to the predetermined regimen as shown in Table 3-1.
# Tumor sizes were measured three times a week in two dimensions using a caliper, and the volume expressed in mm^3 using the formula: V=0.5 a×b^2 where a and b are the long and short diameters of the tumor, respectively. The tumor sizes were then used for the calculations of both tumor growth inhibition (TGI) and T/C values.
# TGI is calculated for each group using the formula: […]
# TVTreatment_DayN is the average tumor volume of a treatment group on a given day, TVTreatment_Day0 is the average tumor volume of the treatment group on the first day of treatment, TVVehicle_DayN is the average tumor volume of the vehicle control group on a given day, and TVVehicle_Day0 is the average tumor volume of the vehicle group on the first day of treatment.
# The T/C value (in percent) is an indication of antitumor effectiveness, T/C (%)=RTVTreatment/RTVControl×100% (RTVTreatment: the mean RTV of the treatment group; RTVControl: the mean RTV of the vehicle treated group). RTV (relative tumor volume)=TVDayN/TVDay0. TVDayN and TVDay0 is the tumor volume on day N and Day 0 respectively. T/C (%)≤42% is considered as significant antitumor activity and <10% is considered as highly significant antitumor activity by the National Cancer Institute criteria.
# Relative change of body weight (RCBW) of each mouse was calculated according to the following formula: […]
# Animal survival curve: When an individual animal reached to the termination endpoint (TV>2000 mm^3), the mouse was euthanized. The time from treatment initiation to the termination was deemed as its survival time. Survival curve was plotted by Kaplan-Meier method. Median survival time (MST) was calculated for each group. Increase of life span (ILS) was calculated according to the following formula: […]
# ILS (%)>25% is considered as a biologically significant survival benefit. […]
smiles,measurement,setting,value
"CC(=O)N[C@@H](Cc1c[nH]c2ccccc12)C(=O)N[C@@H](CCC(=O)C=[N+]=[N-])C(=O)OC(C)C [Compound 1, Isopropyl (S)-2-((S)-2-acetamido-3-(1H-indol-3-yl)propanamido)-6-diazo-5-oxohexanoate]",Tumor volume (Mean ± SEM),"Day 0, Group 2: 1 mg/kg qdx28, sc",70 ± 5 mm^3
same,Tumor volume (Mean ± SEM),"Day 0, Group 3: 0.5 mg/kg qdx28, sc",71 ± 5 mm^3
same,Tumor volume (Mean ± SEM),"Day 0, Group 4: 1.4 mg/kg 5-days ON 2-days OFF x 4 cycles, sc",71 ± 6 mm^3
same,Tumor volume (Mean ± SEM),"Day 0, Group 5: 0.7 mg/kg 5-days ON 2-days OFF x 4 cycles, sc",72 ± 6 mm^3
same,Tumor volume (Mean ± SEM),"Day 0, Group 6: 3 mpk qdx5 followed by 1 mpk qdx23, sc",72 ± 6 mm^3
same,Tumor volume (Mean ± SEM),"Day 0, Group 7: 1.5 mpk qdx5 followed by 0.5 mpk qdx23, sc",72 ± 6 mm^3
same,Tumor volume (Mean ± SEM),"Day 0, Group 8: 1.4 mg/kg 10-days ON 4-days OFF x 2 cycles, sc",72 ± 6 mm^3
same,Tumor volume (Mean ± SEM),"Day 4, Group 2: 1 mg/kg qdx28, sc",45 ± 5 mm^3
same,Tumor volume (Mean ± SEM),"Day 4, Group 3: 0.5 mg/kg qdx28, sc",58 ± 6 mm^3
same,Tumor volume (Mean ± SEM),"Day 4, Group 4: 1.4 mg/kg 5-days ON 2-days OFF x 4 cycles, sc",51 ± 4 mm^3
same,Tumor volume (Mean ± SEM),"Day 4, Group 5: 0.7 mg/kg 5-days ON 2-days OFF x 4 cycles, sc",59 ± 6 mm^3
same,Tumor volume (Mean ± SEM),"Day 4, Group 6: 3 mpk qdx5 followed by 1 mpk qdx23, sc",48 ± 3 mm^3
same,Tumor volume (Mean ± SEM),"Day 4, Group 7: 1.5 mpk qdx5 followed by 0.5 mpk qdx23, sc",54 ± 3 mm^3
same,Tumor volume (Mean ± SEM),"Day 4, Group 8: 1.4 mg/kg 10-days ON 4-days OFF x 2 cycles, sc",57 ± 6 mm^3
same,Tumor volume (Mean ± SEM),"Day 6, Group 2: 1 mg/kg qdx28, sc",34 ± 4 mm^3
same,Tumor volume (Mean ± SEM),"Day 6, Group 3: 0.5 mg/kg qdx28, sc",39 ± 3 mm^3
same,Tumor volume (Mean ± SEM),"Day 6, Group 4: 1.4 mg/kg 5-days ON 2-days OFF x 4 cycles, sc",45 ± 4 mm^3
same,Tumor volume (Mean ± SEM),"Day 6, Group 5: 0.7 mg/kg 5-days ON 2-days OFF x 4 cycles, sc",48 ± 5 mm^3
same,Tumor volume (Mean ± SEM),"Day 6, Group 6: 3 mpk qdx5 followed by 1 mpk qdx23, sc",29 ± 2 mm^3
same,Tumor volume (Mean ± SEM),"Day 6, Group 7: 1.5 mpk qdx5 followed by 0.5 mpk qdx23, sc",37 ± 3 mm^3
same,Tumor volume (Mean ± SEM),"Day 6, Group 8: 1.4 mg/kg 10-days ON 4-days OFF x 2 cycles, sc",41 ± 4 mm^3
same,Tumor volume (Mean ± SEM),"Day 8, Group 2: 1 mg/kg qdx28, sc",25 ± 2 mm^3
same,Tumor volume (Mean ± SEM),"Day 8, Group 3: 0.5 mg/kg qdx28, sc",43 ± 4 mm^3
same,Tumor volume (Mean ± SEM),"Day 8, Group 4: 1.4 mg/kg 5-days ON 2-days OFF x 4 cycles, sc",30 ± 3 mm^3
same,Tumor volume (Mean ± SEM),"Day 8, Group 5: 0.7 mg/kg 5-days ON 2-days OFF x 4 cycles, sc",40 ± 7 mm^3
same,Tumor volume (Mean ± SEM),"Day 8, Group 6: 3 mpk qdx5 followed by 1 mpk qdx23, sc",31 ± 2 mm^3
same,Tumor volume (Mean ± SEM),"Day 8, Group 7: 1.5 mpk qdx5 followed by 0.5 mpk qdx23, sc",35 ± 3 mm^3
same,Tumor volume (Mean ± SEM),"Day 8, Group 8: 1.4 mg/kg 10-days ON 4-days OFF x 2 cycles, sc",26 ± 2 mm^3
same,Tumor volume (Mean ± SEM),"Day 13, Group 2: 1 mg/kg qdx28, sc, 1 mg/kg",5 + 2 mm^3
same,Tumor volume (Mean ± SEM),"Day 13, Group 3: 0.5 mg/kg qdx28, sc, 0.5 mg/kg",24 + 2 mm^3
same,Tumor volume (Mean ± SEM),"Day 13, Group 4: 1.4 mg/kg 5-days ON 2-days OFF x 4 cycles, sc, 1.4 mg/kg",11 + 3 mm^3
same,Tumor volume (Mean ± SEM),"Day 13, Group 5: 0.7 mg/kg 5-days ON 2-days OFF x 4 cycles, sc, 0.7 mg/kg",13 + 4 mm^3
same,Tumor volume (Mean ± SEM),"Day 13, Group 6: 3 mpk qdx5 followed by 1 mpk qdx23, sc",14 + 3 mm^3
same,Tumor volume (Mean ± SEM),"Day 13, Group 7: 1.5 mpk qdx5 followed by 0.5 mpk qdx23, sc",15 + 3 mm^3
same,Tumor volume (Mean ± SEM),"Day 13, Group 8: 1.4 mg/kg 10-days ON 4-days OFF x 2 cycles, sc, 1.4 mg/kg",17 + 4 mm^3
same,Tumor volume (Mean ± SEM),"Day 41, Group 5: 0.7 mg/kg 5-days ON 2-days OFF x 4 cycles, sc",443 ± 200 mm^3
same,Tumor volume (Mean ± SEM),"Day 41, Group 7: 1.5 mpk qdx5 followed by 0.5 mpk qdx23, sc",1829 ± 275 mm^3
same,Tumor volume (Mean ± SEM),"Day 43, Group 4: 1.4 mg/kg 5-days ON 2-days OFF x 4 cycles, sc",847 ± 249 mm^3
same,Tumor volume (Mean ± SEM),"Day 43, Group 5: 0.7 mg/kg 5-days ON 2-days OFF x 4 cycles, sc",817 ± 381 mm^3
